Measurements reported in the supplement of paper PMC12632987.
The full ranking holds about 1,800 sequences; the median of “median log2 fold change of GCK-ALFA target abundance (FLAG IP / Myc IP barcode read proportion)” is about 0.14, and the lowest 2% start at about -0.84. The list shows a part of the results.

T1: TRAF2, Q12933
T1 chain: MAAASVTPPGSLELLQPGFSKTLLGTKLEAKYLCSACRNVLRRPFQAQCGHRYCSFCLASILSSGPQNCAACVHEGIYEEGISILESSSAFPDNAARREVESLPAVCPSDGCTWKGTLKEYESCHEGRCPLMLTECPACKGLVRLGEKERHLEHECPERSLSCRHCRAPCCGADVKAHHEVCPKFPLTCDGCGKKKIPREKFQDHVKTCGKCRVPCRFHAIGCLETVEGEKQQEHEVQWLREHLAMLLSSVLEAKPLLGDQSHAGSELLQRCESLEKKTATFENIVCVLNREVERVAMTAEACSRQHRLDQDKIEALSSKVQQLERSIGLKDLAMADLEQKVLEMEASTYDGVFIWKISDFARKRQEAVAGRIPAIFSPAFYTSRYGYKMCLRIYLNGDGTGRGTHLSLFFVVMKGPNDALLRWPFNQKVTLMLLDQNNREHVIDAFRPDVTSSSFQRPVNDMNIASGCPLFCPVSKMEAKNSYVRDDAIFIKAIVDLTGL

B1: traf2_out_17_162_1554 (protein)
chain: SELEEEKKRLEEELKELKKKLKELKEKLKELEKLSKEELTDLLVEASEAKRRALELAERLKELEEEIGEEEAGKLREEAEKIAEELQKIANKIYKEIEKK
B2: traf2_out_14_149_1257 (protein)
chain: SATEERKKALREAREIFREIAKMLEEAIKAGSTELDKEKLKELLKKAREILSKQGFVLSHLLAMEDLLEKTEEFTKEKLEELLELARRAIESLEVLEEML
B3: traf2_out_17_162_1498 (protein)
chain: AATEARLAELRARLEALKERLKELEEKLPDLPKMSKEELSDLLVEVSELRREARALAEELEALAKETGSPEAVALLAEAKALAERAQEIANKIYKEYEAK
B4: traf2_out_5_189_2317 (protein)
chain: SEKEKERKELNEKARELDREVRELINRMQAEGKSWEEIAEALLKRMEELSLEDANLYSGIAYSILMGMALVSGDEELKKVAEKFRERARKLIEERERELR
B5: traf2_out_6_156_2431 (protein)
chain: KLEEILEEAKKEIKKLIDELSKASEEKKIRYFNKIAGVAKRALERLREAGASLEEIKAFAEELLKFVKEEADKAGLDEDTKNLLLASLNAVFDDAIAAAK
B6: traf2_out_15_180_1313 (protein)
chain: MTMEELRRLADIQLRIEDRALAHARELAERRGLDEERLLARTRVLVRHILSMLHVGWEEEAEAALAELAATLSPEEAAALREVAALTRELWRRERKRLEE
B7: traf2_out_20_3_2108 (protein)
chain: EELEKQYQKELEKALKLLEEAAKLADPETAKRLKELKKRVEASKSLPLSDRLVELSEVRREVLALAQEAEAAGKEELAKVLEEAADALNRAMNLVYQMIE
B8: traf2_out_15_48_1344 (protein)
chain: STEELREKAREVADRIDAAKDEVAATLEKAKPKATPEEQKILDEIITAARTGAGARTVLALLGEAIPKFSPELQAIVTELRDRLEAVIREAGREMAEVLK
B9: traf2_out_11_169_821 (protein)
chain: EEEEFNRELNDFALEQNDEAVKKLKEFALELAKEAGLDVEEVKAIFEEHKGKSLSAVAAALIAWFRSKGKEEEAKKIEEKYDELKDEINKKVSAKIKELE
B10: traf2_out_16_177_1451 (protein)
chain: ELEKVSDRLVILSLLRRAALTAVEGRGEEYKEYLEEARREAKEAGDEEALELAERIEELIEENTEEAKEELLRLARELQREAGELADRAEELIKERAKKE
B11: traf2_out_12_50_982 (protein)
chain: SMEEEERRENEELMALGDRAIDEADRIAAETGGDPEAAFARLVELAEADPSQARFLRVVVRVLRRMFLRRGADPARVGALADEAEERLDEIIEEKVPPKP
B12: traf2_out_11_155_701 (protein)
chain: EEKKKLNNELVDKMMEIEDKTKAELAKIAAEAAAEHPEHAEAIAALLEESSRFSATTMAGRLAALFEELGLEEYAARVKELREKAQEEKNKVYKEIEKKM
B13: traf2_out_20_3_2130 (protein)
chain: MELEEELEKELEEAEKLLKEAAKLADKETAAELKELIKRLKASRSLPLEDRLVVLSEVRRRVLEMAEAARAAGKEELAAVLEEAADELNEAMNLLMKIIE
B14: traf2_out_13_95_1034 (protein)
chain: SRELAEKIMEIADEAEEKILKLLEEKSKELADDPEMVKVLEEARRLALTRGVNEAIHLLREASERFPEYKEELDKLIEEIEKIREEAGKKVAELIKEEEE
B15: traf2_out_14_78_1300 (protein)
chain: MEEEVRRLRERLREREERIERLRERARELAKEKTSDALVEISEIRRELRRIALELEELLAEAEARGLPQEVLDEIRRALERAERAAEEANRLAQEVYDAL
B16: traf2_out_18_3_1907 (protein)
chain: KEEERKKLSEKIDEIEDEARAYARRVLDELAERHPEVRERLDALRADLERGGGAFGVLEALAELAKELGDEERAEEIEAFIRKKRKEFQKLVDEYEKLIK
B17: traf2_out_17_162_1631 (protein)
chain: SATEAKKAQLEAELAELEAQRKELEEKAKNIEKLSKEELTDLLVEASEARRRALELAEEIEALKKELNDPELDTLLARAEALAEQFQRLANLFYKELLKK
B18: traf2_out_17_162_1574 (protein)
chain: EELERELEELKRRLEELEERLKEFEKQLPNIPKMSYEELTDKLVEVSELRREARRLAEELRRLRKELGSEELEELVERAEEIAERLNKIANKIYKEIEKK
B19: traf2_out_9_17_2605 (protein)
chain: AAAKERRKERLLKAVKEVLEELVKEGLITEEQAKEILEKVEKLLEEGASDDEVIANFLGMVASILLTKSDLSLSEINEVVGKAYRKLRAAREALRAEEAA

Target: T1, TRAF2, Q12933
Test: median log2 fold change of GCK-ALFA target abundance (FLAG IP / Myc IP barcode read proportion) (log2 ratio); each designed protein is fused to an ALFA-tag nanobody in HEK293 cells to bring the named protein to FLAG-tagged glucokinase (GCK); Myc marks an untargeted standard; higher = target protein stabilised (more abundant)
Conditions: target protein: 3xFLAG-MCP-GCK-ALFA reporter; HEK293 landing pad (RPLP)
How it was run: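 An ALFA-nanobody-fused binder library was recombined into HEK293 landing-pad cells and induced with 2 μg mL^−1 doxycycline. Cells were transfected with a plasmid expressing a FLAG-tagged target and a Myc-tagged standard. After 48 h, lysates underwent anti-FLAG and anti-Myc immunoprecipitation, and circular RNA barcodes were reverse transcribed, amplified and sequenced. Target abundance is the per-binder median log2 ratio of FLAG to Myc barcode read proportions. Barcodes needed ≥10^−7 proportion in both replicates, binders ≥3 barcodes per replicate, and a 10^−6 pseudocount was added; the two replicates were pooled.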
With B1 the “median log2 fold change” value was 0.337. For B2, the “median log2 fold change” value was 0.276. For B3, the “median log2 fold change” value was 0.242. For B4, the “median log2 fold change” value was 0.411. In the case of B5, the “median log2 fold change” value is reported as 0.246. B6 was tested, and the “median log2 fold change” value was 0.232. With B7 the “median log2 fold change” value was -0.127. B8 was tested, and the “median log2 fold change” value was 0.373. In the case of B9, the “median log2 fold change” value is reported as 0.32. With B10 the “median log2 fold change” value was 0.21. With B11 the “median log2 fold change” value was 0.189. B12 was tested, and the “median log2 fold change” value was 0.105. For B13, the “median log2 fold change” value was 0.246. With B14 the “median log2 fold change” value was -0.375. In the case of B15, the “median log2 fold change” value is reported as 0.162. B16 was tested, and the “median log2 fold change” value was 0.226. With B17 the “median log2 fold change” value was 0.0355. B18 was tested, and the “median log2 fold change” value was -0.0729. B19 was tested, and the “median log2 fold change” value was -0.138.
